Experimental data reported in the supplement of paper PMC11417369.
± gives the standard deviation of the averaged measurements. The list shows a part of the results.

System: PfAP2-LT AP2 domain (GST-tagged)
Test: gcPBM binding intensity (ln(normalized median fluorescence intensity)); higher = stronger DNA binding
In short: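 Using an Agilent 4 × 180k array, primer-extended double-stranded 36-bp intergenic genomic probes and negative controls were exposed for 1 h to GST-fused P. falciparum DNA-binding domains expressed in E. coli. Binding was carried out in 1× PBS with 1% milk, 0.2 mg/ml BSA, 0.5% salmon testes DNA and 0.03% Triton X-100, and protein was detected with Alexa488 anti-GST antibody and a 488 nm scan. Binding intensity is the highest Masliner-normalised natural-log median intensity across replicate spots of either probe orientation.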

Sequence | gcPBM binding intensity (ln)
ATTTTTTTTTGTTTAATGTTATGTGGTCATTAAATT [CACACA_negctrl_site1177] | 8.78 ± 0.48
AAATTAAAAGAAAATACACACCTGTGGGTGCTTATA [CACACA_site5143] | 8.59 ± 0.44
AACATAAATTACTTTTTACACACTAATATAAAATAC [CACACA_site8297] | 8.73 ± 0.42
AATTGCTCGATATATGCACACAGTTTTGTTATTTTT [CACACA_site8465] | 9.38 ± 0.29
AAAACACGCGGACACACACACACACGCCCACATATA [CACACA_site7105] | 10.1 ± 0.33
ACTTTCAAGGATGTACGTACATATGTATTTTATAAC [XGTACX_site6714] | 8.99 ± 0.42
AATTAATTTATTTTATAAATAGTTAGATCGTCATAA [GTGCAC_negctrl_site660] | 8.32 ± 0.42
ATTTCATTAAAGATTACATGCAATTCTATATTATTT [TGCATGCA_site260] | 8.69 ± 0.36
AATATATATTTCTAAGATAAAACCCAAGGATAAAAA [CACACA_negctrl_site735] | 8.53 ± 0.45
AACATATTTTTTCTTAAACACACACCGATATATATA [CACACA_site8919] | 9.03 ± 0.29
TCTGTAAATATGTATACACACATATCTGATCAATAT [CACACA_site5743] | 9.14 ± 0.39
TCATGTAACCATTCATGTACTCAAAAAAAAAAAAAA [XGTACX_site1027] | 8.33 ± 0.38
TTTTTTATGATTAACACACACACAAAAAAAAAAAAA [CACACA_site4130] | 9.03 ± 0.32
AAAAAAAAAACAAATACACACGCACCCAAAAAAAAA [CACACA_site8166] | 9.61 ± 0.18
TTTTATATATATATATATATATATATATATGTATAT [CACACA_negctrl_site173] | 9.33 ± 0.21
AAATGAAAGAACAGCACACATATATATTATATATAA [CACACA_site2002] | 9.08 ± 0.54
TTATATATATGTAATTGTACTTTTAATTTTTTTTTA [XGTACX_site4357] | 8.47 ± 0.61
TATTTTATAATAGGCACACATATAAAAATATATATA [CACACA_site4127] | 8.58 ± 0.44
TAATTTTTTTTAAATACACACTGAAATGTGAATTTT [CACACA_site4476] | 8.46 ± 0.38

Sequence | gcPBM binding intensity (ln)
TAATAAAGTATTTTGCGTACTTATTTTATTCTTCTA [XGTACX_site2095] | 8.68 ± 0.52
GCCCCCAAATTATGTGTGCACTTTATATTCCTGAGA [GTGCAC_site9474] | 9.46 ± 0.099
ATTGTGTGAACAAAATGTACATTTTCTCTACATTAA [XGTACX_site1333] | 8.72 ± 0.44
TGGCATATATATAAATGTACTTTCTTTCTATCTGTT [XGTACX_site8483] | 8.76 ± 0.45
AGGTCATACATAAAATGTACATATATATAAATATAT [XGTACX_site7147] | 8.87 ± 0.47
ACAAGAATACACCACGCACACACACTAGAGAAAAAA [CACACA_site9276] | 10.1 ± 0.54
TGAACACCCAAATACACACACTCAAAAAAAAAAAAG [CACACA_site5467] | 9.42 ± 0.52
ATAAAAATAAAAGACGCATGTTCTTAAAATAAGAAC [TGCATGCA_site189] | 8.93 ± 0.47
AAACAAAATGGTAACACACACATATATATATATATA [CACACA_site1939] | 10.09 ± 0.021
ATATATATATATAATGCACACATTATGAATTATGTA [CACACA_site3384] | 9.18 ± 0.15
GTGTGATCTTTTGAAAGTACATTTTTTTTTTTTTTT [XGTACX_site6311] | 8.49 ± 0.33
TGTATGCATATTTGATGTACGCACATATACTAATTT [XGTACX_site3159] | 8.91 ± 0.38
TTTATATAAAAAAATTGTACATATTTATTATAAACA [XGTACX_site2124] | 8.28 ± 0.45
TATATTCTTATTATTGCATGCTGCACGAAGATTTTC [TGCATGCA_site831] | 9.06 ± 0.38
ATAATAAATAAAATAACACACATATATAGATATATA [CACACA_site6224] | 8.99 ± 0.42
GTATGTTTGTTATGCACACAAATGCATCTTATTTCC [CACACA_site2690] | 9.32 ± 0.41
TTTAATTATAAGATAACACACAAAAAAAATAAAATA [CACACA_site254] | 8.81 ± 0.47
TATTTAATTACATGAACACACATTATGTATTTTTAA [CACACA_site2962] | 8.72 ± 0.47
TAAAAAAAAAAAACAAGTACATATATAAATATATAT [XGTACX_site7537] | 8.6 ± 0.52

Sequence | gcPBM binding intensity (ln)
TTTTTATTTAATAATATATTAATCATATAAATAAAT [GTGCAC_negctrl_site210] | 8.06 ± 0.45
AAATACTATATCAAGCGTACTTATTTCATGGTAATA [XGTACX_site7878] | 8.88 ± 0.4
TTTAAAATATTTTCTTGTACGAAGGAACATTTCTTA [XGTACX_site4013] | 8.46 ± 0.53
TATATATATATATATTGTACATTTTTTTTTTTTTTT [XGTACX_site7891] | 9.04 ± 0.47
GTGCCTTTAAAAAAAAGTACAAAAAAGAACGAATTA [XGTACX_site3714] | 8.51 ± 0.47
AATTTCAAATTGTATGTGCACATGTAGAAGTACTTT | 9.03 ± 0.31
AAAAAAAAAAAAAGCACACACACATATGAGTATATA [CACACA_site4682] | 9.54 ± 0.38
TTTTCATTAAATATATATGCATACCATATGTACATT [GTGCAC_negctrl_site539] | 8.97 ± 0.53
TATGTAAAGAGTAAGGGTACATGTATAATACGGCTC [XGTACX_site1283] | 9.33 ± 0.44
ATATACATATGTGTGTGTACTTATATCACATTTTTG [XGTACX_site3785] | 9.43 ± 0.36
TTATGGATAAATAAATGTACGTTAAGATAACACAAA [XGTACX_site4208] | 8.61 ± 0.39
TCGACAAAGGCATATACACACATTTGTAACATAAAT [CACACA_site4471] | 9.15 ± 0.46
GTTTTTTTGTTTTAGTGTACCTAAAACTGCATGTAG [XGTACX_site294] | 8.9 ± 0.42
AAACCGAATTTACATGAATGTAAATTATGTTGTTTT [CACACA_negctrl_site1834] | 8.69 ± 0.32
ACATAAAATAAATATACACACATATGTATTTATTAT [CACACA_site5648] | 9.05 ± 0.33
CAAGAATAAAAATACAAGCACACATGTATGAAATAT [CACACA_site3214] | 9.32 ± 0.57
ATTTCTCTATAGTAATGTACAAAAAAAAGGAAAAAG [XGTACX_site2757] | 8.64 ± 0.55
ATACAAAAAGTAAAAAGTACTTAACTAAATATATAA [XGTACX_site2335] | 8.74 ± 0.56
